Assay results from the supplement of paper PMC4967469.
The IC50 comes from the fitted curve, where viability falls to half of the control; a fit beyond the top or the lowest dose is shown as a bound at that dose. AUC, from the same fit, is the share of area under the viability curve across the 256-fold dose range: 1 means no effect, lower means more sensitive. For some of these results: The top dose, if marked as inferred, comes from the curve model; the source does not state it. For some of these results: An entry number marks a drug with two screens in the source, which often give different values.

Tests used:
Test in all cases: Viability of human cancer cell lines after 72 h of drug (GDSC screen)
[1] = compound: CC1(C)CC(=O)c2c(C(F)(F)F)nn(-c3ccc(C(N)=O)c(N[C@H]4CC[C@H](O)CC4)c3)c2C1 [SNX-2112]; settings: top dose 2.56 µM
Procedure: (§1)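 Human cancer cell lines in 384-well plates, medium with 10% serum, drug for 72 h over a 256-fold dose range (nine 2-fold or five 4-fold steps up to the top dose). Adherent lines were fixed and stained with the nucleic acid dye Syto60, suspension lines read with resazurin; signal relative to control wells, capped at 0 and 100%. One two-parameter sigmoid per drug and line, fitted in a mixed model over all curves with the slope shared within a line.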

[2] = compound: CN(C)C/C=C/C(=O)Nc1cc2c(Nc3ccc(F)c(Cl)c3)ncnc2cc1O[C@H]1CCOC1 [Afatinib]
Procedure: as §1

[3] = compound: O=C(NC1CC1)c1cccc(-c2ccc3c(NC(=O)C4CC4)n[nH]c3c2)c1 [XMD13-2]; settings: top dose 10.24 µM; top dose inferred
Procedure: as §1

[4] = compound: CN(c1ncccc1CNc1nc(Nc2ccc3c(c2)CC(=O)N3)ncc1C(F)(F)F)S(C)(=O)=O [PF-562271]; settings: top dose 2.56 µM; top dose inferred
Procedure: as §1

[5] = compound: CC[C@]1(O)C[C@@H]2CN(CCc3c([nH]c4ccccc34)[C@@](C(=O)OC)(c3cc4c(cc3OC)N(C)[C@H]3[C@@](O)(C(=O)OC)[C@H](OC(C)=O)[C@]5(CC)C=CCN6CC[C@]43[C@@H]65)C2)C1 [Vinblastine]; settings: top dose 0.1 µM; top dose inferred
Procedure: as §1

[6] = top dose 0.5 µM, screen: GDSC drug entry 1032
[7] = top dose 10 µM, screen: GDSC drug entry 1377, top dose inferred

Row | Cell Line | AUC [1] | IC50 [1] [nM] | AUC [2, 6] | IC50 [2, 6] [nM] | AUC [2, 7] | IC50 [2, 7] [nM] | AUC [3] | IC50 [3] [nM] | AUC [4] | IC50 [4] [nM] | AUC [5] | IC50 [5] [nM]
1 | TE-8 (oesophagus, adherent) | 0.682 | 537 | 0.897 | > 500 | 0.962 | > 10000 | 0.985 | > 10200 | 0.938 | > 2560 | 0.463 | 4.92
2 | QIMR-WIL (acute myeloid leukaemia, suspension) | 0.203 | 21.9 | 0.987 | > 500 | 0.985 | > 10000 | 0.677 | 1960 | 0.922 | > 2560 | 0.396 | 3.27
3 | SK-LMS-1 (soft tissue, adherent) | 0.18 | 18.6 | 0.983 | > 500 | 0.961 | > 10000 | 0.902 | > 10200 | 0.927 | > 2560 | 0.452 | 4.65
4 | HT55 (large intestine, adherent) | 0.931 | > 2560 | 0.952 | > 500 |  |  | 0.971 | > 10200 | 0.981 | > 2560 | 0.945 | > 100
5 | SCC-25 (head and neck, adherent) | 0.487 | 147 | 0.813 | 315 | 0.751 | 3690 | 0.858 | 10200 | 0.89 | > 2560 | 0.636 | 
6 | COLO-680N (oesophagus, adherent) | 0.981 | > 2560 | 0.959 | > 500 | 0.96 | > 10000 | 0.934 | > 10200 | 0.91 | > 2560 | 0.833 | 81.7
7 | SNU-449 (liver, adherent) | 0.787 | 1230 | 0.947 | > 500 | 0.882 | > 10000 | 0.98 | > 10200 | 0.893 | > 2560 | 0.902 | > 100
8 | NCI-SNU-16 (stomach, suspension) | 0.973 | > 2560 | 0.991 | > 500 | 0.986 | > 10000 | 0.979 | > 10200 | 0.991 | > 2560 | 0.634 | 13.9
9 | OPM-2 (myeloma, suspension) | 0.285 | 45.2 | 0.994 | > 500 | 0.993 | > 10000 | 0.872 | 6790 | 0.912 | 2510 | 0.895 | 81.6
10 | COLO-668 (small cell lung carcinoma, adherent) | 0.409 | 90.3 | 0.989 | > 500 | 0.982 | > 10000 | 0.915 | > 10200 | 0.974 | > 2560 | 0.941 | > 100
11 | H2461 (mesothelioma, adherent) | 0.952 | > 2560 | 0.982 | > 500 | 0.961 | > 10000 | 0.983 | > 10200 | 0.965 | > 2560 | 0.775 | 49.9
12 | NU-DUL-1 (B-cell lymphoma, suspension) | 0.292 | 47.5 | 0.992 | > 500 | 0.992 | > 10000 | 0.793 | 3690 | 0.948 | > 2560 | 0.343 | 2.52
13 | ATN-1 (T-cell lymphoblastic leukaemia, suspension) | 0.295 | 44.2 | 0.984 | > 500 | 0.941 | > 10000 | 0.739 | 2910 | 0.917 | > 2560 | 0.171 | 0.687
14 | LU-135 (small cell lung carcinoma, suspension) | 0.456 | 124 | 0.989 | > 500 | 0.992 | > 10000 | 0.836 | 5210 | 0.862 | 1610 | 0.462 | 5.02
15 | C-4-I (cervix, adherent) | 0.687 | 562 | 0.872 | > 500 |  |  | 0.959 | > 10200 | 0.89 | > 2560 | 0.608 | 12.7
16 | HCC-44 (lung adenocarcinoma, adherent) | 0.353 | 63.4 | 0.9 | > 500 | 0.973 | > 10000 | 0.918 | > 10200 | 0.879 | 2530 | 0.372 | 2.79
17 | CAS-1 (glioma, adherent) | 0.899 | > 2560 | 0.981 | > 500 | 0.974 | > 10000 | 0.958 | > 10200 | 0.912 | > 2560 | 0.763 | 49.3
18 | C-33-A (cervix, adherent) | 0.403 | 86.4 | 0.81 | 264 | 0.591 | 1110 | 0.93 | > 10200 | 0.849 | 1940 | 0.522 | 7.19
